The other results are listed elsewhere or left out.
Tested on: PfHDP1 homeodomain (GST-tagged)
Test: gcPBM binding intensity (ln(normalized median fluorescence intensity)); higher = stronger DNA binding
Method in brief: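 The highest Masliner-normalised natural-log median intensity across replicate spots of either probe orientation is reported as binding intensity. GST-tagged P. falciparum DNA-binding domains expressed in E. coli were applied for 1 h to an Agilent 4 × 180k array of primer-extended double-stranded 36-bp intergenic genomic probes plus negative controls, and bound protein was detected with Alexa488 anti-GST antibody and scanned at 488 nm.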

Sequence	gcPBM binding intensity (ln)
TATATATATTTAAATTGTACATATATTATTCATATG [XGTACX_site911]	6.37
TTTTATAATTTATCTAAAAAAAAATAAAATAAAATG [TGCATGCA_negctrl_site429]	6.03
ATAAAATAAAATAAAAGTACATAAATATATATATAT [XGTACX_site6110]	8.63
TTTTTTTTTCTTTGCACACAGATAACTTGAAATTTG [CACACA_site2185]	8.74
ATAAGGATCAGACACAAACACACATATATATATATA [CACACA_site558]	9.17
AAATAATTCATATGTTGTACAGTAATTAAATTTTCT [XGTACX_site6343]	6.31
ATAATTAATCCAAAATGTACTTACATTTTATATGAA [XGTACX_site8888]	6.32
ACATATATATATATTACACACACACTAATAAAATAA [CACACA_site7920]	7.18
TTTCAAGAATTATATAAACACACATACATACACCCA [CACACA_site8592]	7.09
ATATATATATTTTATTGTACAAAAAAAAAAAAAAAA [XGTACX_site6803]	7.4
TTGTTATGCATTGGTTGTACATAAGTATAAGTAATT [XGTACX_site5401]	6.59
CCATTATACACAATATGTACATATATATAATCATTT [XGTACX_site7942]	7.38
AAAAAAAAAATATGTACACACATATAAAATACATAA [CACACA_site6869]	6.52
ATAGGATTCTCAAAGTGTACTTGTCTACTGTAGTTT [XGTACX_site4202]	6.22
TTTGTTTGTAAAATGTTGCACTTTCTTTTGCTGATA	8.05
TGTTTTGTTATTTTTATTTATATAAATAAAGCTATA [GTGCAC_negctrl_site88]	7.01
ATATATATATTATATGCACACTAATAAGACTATTTA [CACACA_site5880]	9.95
CATAAATACAGTAACACACACAAAAAAATATGAATA [CACACA_site6066]	6.94
AAAAAAAAAAAAAAAAGTACAAATTTAAAAATGTGT [XGTACX_site112]	6.49
TTGGTTTCTTGTTTTTGTACCCATAATTTGTAATAT [XGTACX_site1248]	7.19
AATAATAAAATAAAAGTGCATTAATTATAATTCTTT [GTGCAC_site9491]	8.2
GAGGAAAAAAAAAAAAGTACATTATATAAGAAAATT [XGTACX_site2610]	6.11
TTAAATATTTATATTTGTACACAATCAATCATACAC [XGTACX_site5793]	6.81

Sequence	gcPBM binding intensity (ln)
AATTATAATAATAATAGTACATAAGTATATAAATAA [XGTACX_site2400]	6.39
TCTTTCTAAATCTTACAAATTACTAAAATATTTATA [CACACA_negctrl_site87]	6.28
ATGATATACGTAAACACACAAATAAAAAAAATTTAT [CACACA_site7544]	6.36
TATATAGCATATTTCACACACACATAATGAATATTA [CACACA_site3546]	6.59
TTAAAAAGAAAGTTCACACACATATAGATGACGGAA [CACACA_site7268]	6.76
TTTTTTAGTTTTTAGTGTACATAAATAAATAAATAA [XGTACX_site2843]	6.54
TGATACTTATGATAAATACACACTTGAAATTAAGGA [CACACA_site1152]	6.33
TTCATTAAATAGAACAAAATAATAATATAACAACAA [GTGCAC_negctrl_site116]	6.77
TTAAAGATATACAAAAGTACTTTTTTTTTCGTCATT [XGTACX_site384]	6.09
CCATATCTTTTTTGCACACACTACAATAAAACAAAA [CACACA_site4995]	10.6
AATAATCATAGTTCTACACACCTATATTGCAAAAAA [CACACA_site867]	8.22
GGTTCATATATTAACACACACATACATATTATATAT [CACACA_site2937]	6.91
TGAGAGAGAAACGTAGTGCATAAAATCAAATTTAGA [GTGCAC_site9737]	8.98
TTATAAAAAATTTTAGTGCATATATGATTTATATAT [GTGCAC_site9831]	9.44
TACAAAAATAAATGTTGTACTATTATTTATTTCGAT [XGTACX_site1048]	6.2
TAATATGTATTTACAAGTACTAACAAAATATTAAAA [XGTACX_site3379]	6.37
TTTAAATAAAATATTACACACTTAGAAAAATATATA [CACACA_site3663]	6.23
ACTTCAAAAATAAACTGTACGTAAAAAAAAAAAAAA [XGTACX_site795]	6.68
TTTCTTTTTTTTTTTGTATATTAAATCTAAAAAGGA [TGCATGCA_negctrl_site431]	6.24
TTTCGTAAAATGAAATGTACTCAAAAGTAAATATAA [XGTACX_site214]	6.19
ACATACATACACCCACGTACGTACCGAAACACCACC [XGTACX_site1212]	7.02
GATATAATGTGTTTGGTATTCTTGATAGATAGTTTT [CACACA_negctrl_site1711]	6.57

Reference: the supplement of paper PMC11417369
